Test results from PubChem BioAssay AID2676 (National Center for Advancing Translational Sciences (NCATS), 2010).
In all, about 370,000 compounds went through this assay and about 1,100 (0.3%) were called active. Inconclusive results, whose numbers are uncertain, are shown with a selection of clear calls. The call rests on the fitted dose curve; in most records, active means well fitted activation curve with a large enough effect; inconclusive means small, poorly fitted or top-dose-only effect; inactive means flat fitted curve, though single readings scatter. Where the call is inconclusive, the potency comes from a doubtful curve fit.

target: Relaxin receptor 1 (Homo sapiens) (UniProt Q9HBX9); assay: qHTS Assay for Agonists of the Relaxin Receptor RXFP1; details: HEK293T-RXFP1 cAMP TR-FRET, 30 min; series mostly up to 57.5 µM; activation: at the top concentration; further: nearly all actives have a fitted effect of over 60% in size
UniProt Q9HBX9, sequence (Q9HBX9 whole entry, looked up): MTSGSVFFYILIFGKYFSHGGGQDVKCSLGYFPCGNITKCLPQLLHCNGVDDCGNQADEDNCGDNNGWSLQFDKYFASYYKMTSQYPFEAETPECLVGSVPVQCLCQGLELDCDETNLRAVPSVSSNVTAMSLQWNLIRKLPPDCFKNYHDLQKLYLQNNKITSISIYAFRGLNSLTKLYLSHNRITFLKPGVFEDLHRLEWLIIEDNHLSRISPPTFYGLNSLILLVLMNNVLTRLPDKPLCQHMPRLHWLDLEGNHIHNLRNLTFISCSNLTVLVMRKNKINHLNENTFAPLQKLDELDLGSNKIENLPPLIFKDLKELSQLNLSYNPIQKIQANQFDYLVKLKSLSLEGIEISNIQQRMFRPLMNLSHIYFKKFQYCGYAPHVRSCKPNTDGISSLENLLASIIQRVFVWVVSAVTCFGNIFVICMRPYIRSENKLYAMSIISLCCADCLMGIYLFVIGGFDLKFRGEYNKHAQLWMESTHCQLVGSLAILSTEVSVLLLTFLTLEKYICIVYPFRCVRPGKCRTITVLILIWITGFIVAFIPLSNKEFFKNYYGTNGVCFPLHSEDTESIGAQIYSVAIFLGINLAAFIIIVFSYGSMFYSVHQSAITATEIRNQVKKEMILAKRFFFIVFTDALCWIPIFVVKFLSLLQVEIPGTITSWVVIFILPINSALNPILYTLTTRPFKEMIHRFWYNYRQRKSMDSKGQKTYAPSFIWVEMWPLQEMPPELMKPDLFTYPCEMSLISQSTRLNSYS
Method in brief: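 cAMP rise read by TR-FRET after 30 min, 37C compound exposure (up to 58 uM) in RXFP1-transfected HEK293 cells with Ro 20174 present. EC50 from Hill-equation fits, with 29 nM porcine relaxin as 100% and buffer as basal.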
On the % scale 0 is the no-effect control and ±100 the full control effect; potency means the concentration at half of the fitted maximal effect; tags describe the fitted curve by direction and shape.

Potency, inconclusive:
CCN(CC)c1nc(-c2ccccc2Cl)c2cc(Br)ccc2n1 17.8 µM [activator, partial curve]
CCSc1nnc(NC(=O)Cn2cnc3c2c(=O)n(C)c(=O)n3C)s1 20 µM [activator, partial curve]
O=S(=O)(c1ccccc1)c1cnn2c(C(F)(F)F)cc(-c3ccc(F)cc3)nc12 39.8 µM [activator, single point]
COCCCn1c(=O)c2sccc2n2c(CCCC(=O)NCc3ccc(F)cc3)nnc12 25.1 µM [activator, partial curve]
CNC(=O)c1c2c(nc3ccc(Br)cc13)CCCC2 22.4 µM [activator, partial curve]
O=C(Nc1ccc2oc(-c3ccc(Cl)cc3)nc2c1)c1ccc2ccccc2c1 25.1 µM [activator, single point]
CC(C)C1Cc2c(sc3ncnc(NN)c23)CO1 (stereo unspecified) 12.6 µM [activator, partial curve]
CCOc1ccc(-c2oc3cc(Cl)ccc3c(=O)c2O)cc1OC 25.1 µM [activator, partial curve]
Cc1ccc(NC(=O)Cn2c(SCc3ccc(F)cc3)nc3cccnc32)cc1F 39.8 µM [activator, single point]
Cc1cccc(C)c1Nc1c(-c2ccc(N3CCOCC3)cc2)nc2cnccn12 15.8 µM [activator, partial curve]
Cc1ccc(NC(=O)Cn2cc(S(=O)(=O)N3CCC(C)CC3)c3ccccc3c2=O)c(Br)c1 35.5 µM [activator, single point]
Cc1ccc(CCNC(=O)c2ccc3c(=O)n(-c4ccccc4)c(=O)[nH]c3c2)cc1 25.1 µM [activator, partial curve]
CC(=O)c1sc2nc(SCC(=O)N3CCCCC3)[nH]c(=O)c2c1C 25.1 µM [activator, partial curve]
Cc1cc(N2C(=O)C(O)=C(C(=O)c3ccc(C)o3)C2c2ccc(OCc3ccccc3)cc2)no1 (stereo unspecified) 28.2 µM [activator, partial curve]
N#C/C(C(=O)NCc1ccco1)=C1/SC=C(c2ccccc2)N1c1ccccc1 39.8 µM [activator, single point]
CCCNC(=O)CSc1nc(-c2ccc(OC)cc2)cc(C(F)(F)F)n1 31.6 µM [activator, single point]
COC(=O)c1sccc1NC(=O)C1CC(C)=C(C)CC1C(=O)O (stereo unspecified) 31.6 µM [activator, single point]
Cn1c(SCC(=O)Nc2nc3ccccc3s2)ncc(C(=O)Nc2ccc(F)cc2)c1=O 35.5 µM [activator, single point]
COc1cccc(C(=O)Nc2cccc(C(=O)OCc3cc(=O)n4c(C)csc4n3)c2)c1 35.5 µM [activator, single point]
CCCCN(CC)C(=O)c1cc2c(=O)n3cccc(C)c3nc2s1 22.4 µM [activator, partial curve]
Cc1ccc(-c2nc(=S)c3c(n2Cc2cccnc2)CC(C)(C)OC3)cc1 35.5 µM [activator, partial curve]
CCCCNc1nc2c(S(=O)(=O)c3ccc(Cl)cc3)nnn2c2ccsc12 35.5 µM [activator, single point]
CN1CCN(C(=O)c2cnn(-c3cccc(Cl)c3)c2C2CCN(C(=O)OC(C)(C)C)CC2)CC1 39.8 µM [activator, single point]
COc1ccc2cc(C)c(SCC(=O)Nc3cc(C)on3)nc2c1 31.6 µM [activator, single point]
COc1cccc(CNC(=O)COC(=O)/C(C#N)=C/c2ccc(N(C)C)cc2)c1 31.6 µM [activator, single point]
Cc1cc(C(=O)OCC(=O)c2ccc(Br)s2)no1 14.1 µM [activator, partial curve]
CCCn1c(SCC(=O)N2CCc3ccccc3C2)nc2c1c(=O)n(C)c(=O)n2C 25.1 µM [activator, partial curve]
O=C(CCc1nnc2ccc(N3CCC4(CC3)OCCO4)nn12)N1CCCCC1 14.1 µM [activator, partial curve]
COc1ccc(-n2nc(C(=O)NCC(=O)NCCCN3CCOCC3)c3ccccc3c2=O)c(OC)c1 20 µM [activator, partial curve]

Potency, active:
COc1ccc(S(=O)(=O)N2CCOCC2)cc1NC(=O)CSc1nnc2ccccn12 3.55 µM

activation, inactive:
COC(=O)Nc1cc(C(=O)c2ccc(Cl)cc2Cl)c[nH]1 -0.574%
COc1ccc(CNc2oc(/C=C/c3cccc(OC)c3)nc2C#N)cc1 21.6%
COc1ccccc1/C=C/C(=O)OCCN1CCOCC1 4.14%
CN(Cc1ccccc1)C(=O)c1cccc(NC(=O)c2nsc3ccccc23)c1 4.5%
O=S(=O)(O)c1cccc2c(N=Nc3ccc(O)c4ncccc34)cccc12 -0.386%
CCOc1ccc(CNC(=O)CCn2c(=O)oc3ccccc32)cc1OC 3.03%
Cc1ccc(S(=O)(=O)N(C)CC(=O)Nc2ccc(C)cn2)cc1 1.2%
c1ccc(-c2cn3c(n2)CCC3)cc1 0.398%
O=C(Nc1cccc(F)c1)C1CCN(c2nc3ccccc3[nH]2)CC1 6.9%
COc1ccc(-c2nnc(SCC(=O)N(C)Cc3ccccc3)o2)cc1OC 6.03%
CCNc1cccc2c1C(=O)N(C)C2=O 1.2%
Cc1[nH]c(=S)[nH]c(=O)c1CCOc1ccccc1 -1.37%
C/C(=N\NC(=O)Cc1ccc(Cl)cc1)c1ccccc1O 0.378%
O=C(N/N=C/c1ccco1)c1cc(-c2cccc3ccccc23)n[nH]1 0.655%
CCN(CC)Cc1c(C(=O)N/N=C/c2cccnc2)nnn1-c1nonc1N 1.61%
CC(C)CCNC(=O)CN1C(=O)c2cccnc2Oc2ccccc21 -2.4%
